Laboratory results taken from patent US20250387474A1 (MEDICENNA THERAPEUTICS, published 2025).

Columns and labels:
human IL-13Rα2 [1] = target: T1, human IL-13Rα2 (human, UniProt Q14627 27-343); test: SPR, historical data of the applicant
T1 construct: also called Human IL-13 R alpha 2 Protein; IL-13 decoy receptor
T1 sequence (looked up): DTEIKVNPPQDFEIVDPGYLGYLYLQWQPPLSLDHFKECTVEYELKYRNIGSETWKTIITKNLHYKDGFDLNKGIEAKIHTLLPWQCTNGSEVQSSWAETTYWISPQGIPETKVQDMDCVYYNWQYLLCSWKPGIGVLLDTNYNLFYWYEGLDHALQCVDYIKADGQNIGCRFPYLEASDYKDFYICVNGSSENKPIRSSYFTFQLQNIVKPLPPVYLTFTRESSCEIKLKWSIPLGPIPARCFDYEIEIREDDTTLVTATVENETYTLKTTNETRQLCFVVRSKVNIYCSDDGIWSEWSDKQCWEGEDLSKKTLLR

human IL-13Rα2 [2] = target: T1, human IL-13Rα2; test: SPR on immobilized ligands with receptors as flow analytes using MCK, top trace marked 250 nM
cynomolgus IL-13Rα1 = target: T2, cynomolgus IL-13Rα1 (cynomolgus, UniProt A0A7N9D0M5 20-341); test: SPR, construct on chip, receptor as analyte
T2 construct: also called cyno IL-13Rα1
T2 sequence: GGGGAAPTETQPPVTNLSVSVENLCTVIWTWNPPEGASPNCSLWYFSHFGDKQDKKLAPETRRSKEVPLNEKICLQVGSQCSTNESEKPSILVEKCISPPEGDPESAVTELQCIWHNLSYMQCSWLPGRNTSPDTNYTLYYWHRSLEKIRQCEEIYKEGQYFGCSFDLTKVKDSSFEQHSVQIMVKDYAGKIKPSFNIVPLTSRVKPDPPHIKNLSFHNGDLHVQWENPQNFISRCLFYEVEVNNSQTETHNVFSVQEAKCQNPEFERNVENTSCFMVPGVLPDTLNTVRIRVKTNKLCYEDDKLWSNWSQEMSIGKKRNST

mouse IL-13Rα2 = target: T3, mouse IL-13Rα2 (mouse, UniProt O88786 22-334); test: SPR, construct on chip, receptor as analyte
T3 sequence (looked up): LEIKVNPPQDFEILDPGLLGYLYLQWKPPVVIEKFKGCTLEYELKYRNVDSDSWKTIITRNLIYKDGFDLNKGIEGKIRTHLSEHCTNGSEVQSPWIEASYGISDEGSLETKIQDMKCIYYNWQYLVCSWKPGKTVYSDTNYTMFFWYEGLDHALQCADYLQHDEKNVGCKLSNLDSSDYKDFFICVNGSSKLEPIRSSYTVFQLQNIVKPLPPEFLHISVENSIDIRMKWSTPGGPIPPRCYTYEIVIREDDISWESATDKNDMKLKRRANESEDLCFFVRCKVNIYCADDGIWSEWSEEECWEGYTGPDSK

mouse IL-13Rα1 = target: T4, mouse IL-13Rα1 (mouse, UniProt O09030 26-340); test: SPR, construct on chip, receptor as analyte
T4 sequence (looked up): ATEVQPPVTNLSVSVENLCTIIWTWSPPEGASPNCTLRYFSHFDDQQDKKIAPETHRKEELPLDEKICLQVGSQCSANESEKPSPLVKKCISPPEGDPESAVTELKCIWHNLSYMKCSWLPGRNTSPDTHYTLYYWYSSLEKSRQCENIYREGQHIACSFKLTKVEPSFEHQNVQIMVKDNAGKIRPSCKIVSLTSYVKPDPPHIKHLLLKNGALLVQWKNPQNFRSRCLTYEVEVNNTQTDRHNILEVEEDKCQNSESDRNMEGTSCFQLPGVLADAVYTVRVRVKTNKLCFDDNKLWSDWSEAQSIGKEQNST

human IL-13Rα1 [3] = target: T5, human IL-13Rα1 (human, UniProt P78552 22-343); test: SPR, construct on chip, receptor as analyte
T5 construct: also called Human IL-13 R alpha 1 Protein; IL-13 functional receptor
T5 sequence (looked up): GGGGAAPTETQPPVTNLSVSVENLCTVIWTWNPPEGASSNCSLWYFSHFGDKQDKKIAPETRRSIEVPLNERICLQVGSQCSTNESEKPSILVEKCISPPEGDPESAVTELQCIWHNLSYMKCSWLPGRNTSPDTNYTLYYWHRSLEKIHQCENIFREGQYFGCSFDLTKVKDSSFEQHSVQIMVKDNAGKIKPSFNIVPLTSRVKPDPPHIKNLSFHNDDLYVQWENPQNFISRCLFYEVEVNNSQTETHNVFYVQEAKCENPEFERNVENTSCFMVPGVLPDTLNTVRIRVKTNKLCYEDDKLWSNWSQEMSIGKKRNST

human IL-13Rα2 [4] = target: T1, human IL-13Rα2; test: SPR, construct on chip, receptor as analyte
human IL-13Rα1 [5] = target: T5, human IL-13Rα1; test: SPR, construct on chip, receptor as analyte; remark: listed apart in the source
human IL-13Rα2 [6] = target: T1, human IL-13Rα2; test: SPR, construct on chip, receptor as analyte; remark: listed apart in the source

B1: Fc-MDNA413^R39/Q111 (1:2) (Fc fusion)
chain: [sequence of human IgG1 Fc with changes not given]GGGSGGGGSGGGGSPGPVPPSTAVRALIEELINITQNQKAPLCNGSMVWSINRTAGMYCAALESLINVSGCSAIEKTQDMLSGFCPHKVSAGQFSSLHVRSSKIEVAQFVKDLLFHLRTLFREGQFN
notes: also called Fc-MDNA413 (1:2)
A Kd (human IL-13Rα2 [1]) of 19 nM, a Kd (human IL-13Rα2 [2]) of 19.6 nM and a Kd (cynomolgus IL-13Rα1) of 65.5 nM were found for B1 in this work. The Kd (mouse IL-13Rα2) was 34.8 nM and the Kd (mouse IL-13Rα1) was 25.5 nM.

B2: Fc-IL13 (1:1 KIH) (Fc fusion)
chain: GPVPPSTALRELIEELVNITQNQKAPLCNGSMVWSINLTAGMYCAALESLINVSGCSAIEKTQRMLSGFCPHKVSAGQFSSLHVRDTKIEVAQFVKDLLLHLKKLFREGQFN
A Kd (human IL-13Rα1 [3]) of 470 nM and a Kd (human IL-13Rα2 [4]) of 0.15 nM were found for B2 in this work.

B3: MDNA132.15-Fc-MDNA413 (1:1:2 KIH) (Fc fusion)
chain 1: PGPVPPSTAHRELIRELVNITQNQKAPLCNGSMVWSINLTAGMYCAALESLINVSGCSAIEKTQRMLSGFCPHKVSAGQFSSLHVTGRKIEVAQFVKDLLLHLKKLFKEGQFNGGGGSGGGGSGGGGSDKTHTCPPCPAPELLGGPSVFLFPPKPKDTLMISRTPEVTCVVVDVSHEDPEVKFNWYVDGVEVHNAKTKPREEQYASTYRVVSVLTVLHQDWLNGKEYKCKVSNKALPAPIEKTISKAKGQPREPQVYTLPPCRDELTKNQVSLWCLVKGFYPSDIAVEWESNGQPENNYKTTPPVLDSDGSFFLYSKLTVDKSRWQQGNVFSCSVMHEALHNHYTQKSLSLSPGGGGGSGGGGSGGGGSPGPVPPSTAVRALIEELINITQNQKAPLCNGSMVWSINRTAGMYCAALESLINVSGCSAIEKTQDMLSGFCPHKVSAGQFSSLHVRSSKIEVAQFVKDLLFHLRTLFREGQFN
chain 2: [sequence of human IgG1 Fc with changes not given]GGGGSGGGGSGGGGSPGPVPPSTAVRALIEELINITQNQKAPLCNGSMVWSINRTAGMYCAALESLINVSGCSAIEKTQDMLSGFCPHKVSAGQFSSLHVRSSKIEVAQFVKDLLFHLRTLFREGQFN
A Kd (human IL-13Rα1 [5]) of 39.4 nM and a Kd (human IL-13Rα2 [6]) of 1.9 nM were found for B3 in this work.

Read-outs that look alike come from different tables or passages of the source.
